Reference: paper PMC4407695 (Journal of molecular biology, 2014)

What was measured:
NHERF1 [1] = target: T1, NHERF1 (UniProt O14745 1-358); assay: ITC
T1 sequence (looked up): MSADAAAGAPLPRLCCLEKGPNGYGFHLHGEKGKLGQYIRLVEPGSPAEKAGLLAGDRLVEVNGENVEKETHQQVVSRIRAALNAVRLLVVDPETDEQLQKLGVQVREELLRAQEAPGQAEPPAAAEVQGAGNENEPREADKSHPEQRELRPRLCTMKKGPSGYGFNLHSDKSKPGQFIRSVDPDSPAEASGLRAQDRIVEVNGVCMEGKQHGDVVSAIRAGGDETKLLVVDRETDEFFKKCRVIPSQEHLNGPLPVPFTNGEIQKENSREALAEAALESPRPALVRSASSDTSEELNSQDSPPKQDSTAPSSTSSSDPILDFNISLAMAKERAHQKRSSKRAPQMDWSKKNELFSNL

NHERF1 [2] = target: T1, NHERF1; assay: SPR

B1: FERM domain of Ezrin (domain or fragment)
chain: not shown
Kd (NHERF1 [1]): 17.8 ± 6.8 nM
Kd (NHERF1 [2]): 25.8 ± 1.8 nM
